Measurements taken from paper PMC2714578.
Results are given in words; binding and its absence hold for the method and conditions named. Binding seen in cells or lysates may run through a third protein. Some entries that bind do so weakly or less than the wild type. For some assays here: Where a sequence is shown, tags or fusion partners need not be part of it. Values belong to the molecule of their own block, whether it stands above or below them.

By UniProt entry, the sequences of proteins in these tests, tags left out.
UniProt O60493: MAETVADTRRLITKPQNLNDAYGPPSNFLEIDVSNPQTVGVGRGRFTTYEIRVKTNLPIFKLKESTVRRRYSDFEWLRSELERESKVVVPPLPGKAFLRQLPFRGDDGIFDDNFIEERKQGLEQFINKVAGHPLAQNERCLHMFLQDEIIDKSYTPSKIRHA
UniProt Q13596: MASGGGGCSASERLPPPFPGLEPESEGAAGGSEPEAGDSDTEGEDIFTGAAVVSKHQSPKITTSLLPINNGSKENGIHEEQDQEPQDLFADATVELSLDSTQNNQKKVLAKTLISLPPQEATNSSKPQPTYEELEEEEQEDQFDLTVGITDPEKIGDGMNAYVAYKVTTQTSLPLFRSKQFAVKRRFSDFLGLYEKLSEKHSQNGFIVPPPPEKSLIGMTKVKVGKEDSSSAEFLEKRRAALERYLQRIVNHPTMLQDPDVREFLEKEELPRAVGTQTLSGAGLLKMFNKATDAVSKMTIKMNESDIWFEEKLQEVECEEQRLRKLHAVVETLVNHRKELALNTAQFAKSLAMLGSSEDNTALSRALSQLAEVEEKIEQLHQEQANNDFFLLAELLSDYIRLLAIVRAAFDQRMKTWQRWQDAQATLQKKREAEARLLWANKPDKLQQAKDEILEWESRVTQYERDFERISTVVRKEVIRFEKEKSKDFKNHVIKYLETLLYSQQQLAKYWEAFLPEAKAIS
UniProt Q13409: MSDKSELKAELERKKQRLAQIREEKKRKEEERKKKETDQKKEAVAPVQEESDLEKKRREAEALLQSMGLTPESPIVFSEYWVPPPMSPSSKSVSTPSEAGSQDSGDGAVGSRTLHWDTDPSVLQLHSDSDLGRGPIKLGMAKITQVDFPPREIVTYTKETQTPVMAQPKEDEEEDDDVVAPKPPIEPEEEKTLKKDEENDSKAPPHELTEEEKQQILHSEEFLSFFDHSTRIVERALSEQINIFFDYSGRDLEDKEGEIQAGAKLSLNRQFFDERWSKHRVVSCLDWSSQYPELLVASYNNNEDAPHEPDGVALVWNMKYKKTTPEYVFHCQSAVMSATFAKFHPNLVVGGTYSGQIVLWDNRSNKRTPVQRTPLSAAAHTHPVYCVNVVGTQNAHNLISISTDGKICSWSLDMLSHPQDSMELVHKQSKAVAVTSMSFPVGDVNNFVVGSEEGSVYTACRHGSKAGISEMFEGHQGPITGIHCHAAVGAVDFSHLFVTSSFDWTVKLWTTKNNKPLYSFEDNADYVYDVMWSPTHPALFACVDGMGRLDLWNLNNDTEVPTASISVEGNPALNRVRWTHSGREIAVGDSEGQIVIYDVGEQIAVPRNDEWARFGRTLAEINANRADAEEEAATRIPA
UniProt Q13561: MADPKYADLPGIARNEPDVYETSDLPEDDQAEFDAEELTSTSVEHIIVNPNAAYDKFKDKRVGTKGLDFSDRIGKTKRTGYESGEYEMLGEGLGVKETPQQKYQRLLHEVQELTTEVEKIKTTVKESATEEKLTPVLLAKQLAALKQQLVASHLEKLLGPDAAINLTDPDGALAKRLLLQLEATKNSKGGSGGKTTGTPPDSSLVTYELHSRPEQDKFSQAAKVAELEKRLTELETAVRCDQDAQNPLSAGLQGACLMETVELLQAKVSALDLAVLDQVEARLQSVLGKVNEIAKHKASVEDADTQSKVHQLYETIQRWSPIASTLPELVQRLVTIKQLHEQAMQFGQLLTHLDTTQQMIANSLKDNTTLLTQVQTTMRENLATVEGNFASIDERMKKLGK

Legend:
Flag-tagged SNX6 = target: T1, Flag-tagged SNX6 (UniProt Q9UNH7); test: co-IP; immunoprecipitation of Flag-SNX6 from HeLa cells coexpressing GFP-SNX1 or GFP-SNX5; lysis buffer 20 mM HEPES pH 7.2, 100 mM K-acetate, 2.5 mM Mg-acetate, 0.1% Triton X-100; 4°C
T1 sequence: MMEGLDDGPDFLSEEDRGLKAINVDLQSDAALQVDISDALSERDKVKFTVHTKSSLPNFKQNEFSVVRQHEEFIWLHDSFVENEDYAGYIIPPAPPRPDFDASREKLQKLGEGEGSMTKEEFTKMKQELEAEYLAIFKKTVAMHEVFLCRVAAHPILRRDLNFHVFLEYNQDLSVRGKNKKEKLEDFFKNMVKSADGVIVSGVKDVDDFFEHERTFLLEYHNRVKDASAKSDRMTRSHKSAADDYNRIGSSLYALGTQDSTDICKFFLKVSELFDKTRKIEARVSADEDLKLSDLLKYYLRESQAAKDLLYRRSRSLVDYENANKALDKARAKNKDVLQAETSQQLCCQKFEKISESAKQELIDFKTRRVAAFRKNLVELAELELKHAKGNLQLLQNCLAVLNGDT

GST-SNX3 = GST-SNX3 (UniProt O60493); test: pull-down; GST-fusion proteins expressed in HEK293T cells and isolated by GST affinity chromatography; blots for endogenous p150^glued, DYNC1I2, p50^dynamitin, SNX1 and SNX2
GST-SNX5 = target: T2, GST-SNX5 (UniProt Q9Y5X3); test: as above
T2 sequence: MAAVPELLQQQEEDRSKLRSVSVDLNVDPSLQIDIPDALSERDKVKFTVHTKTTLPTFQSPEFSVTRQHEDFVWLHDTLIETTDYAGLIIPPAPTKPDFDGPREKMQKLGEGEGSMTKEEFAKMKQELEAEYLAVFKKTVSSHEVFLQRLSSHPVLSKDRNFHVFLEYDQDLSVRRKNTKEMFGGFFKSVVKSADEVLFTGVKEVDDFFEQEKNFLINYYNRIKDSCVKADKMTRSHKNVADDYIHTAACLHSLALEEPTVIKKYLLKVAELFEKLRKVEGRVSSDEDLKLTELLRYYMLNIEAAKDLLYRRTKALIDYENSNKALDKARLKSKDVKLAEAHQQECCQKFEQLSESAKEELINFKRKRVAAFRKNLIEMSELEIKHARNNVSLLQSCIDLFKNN

GST-SNX6 = target: T3, GST-SNX6 (UniProt Q9UNH7); test: as above
T3 sequence: T1 sequence

GST-tagged SNX3 = GST-tagged SNX3 (UniProt O60493); test: pull-down; GST pull-downs from HeLa cells expressing GST or GST-tagged SNX3, SNX4, SNX5 or SNX6; blots for endogenous SNX1 and SNX2
GST-tagged SNX4 = target: T4, GST-tagged SNX4 (UniProt O95219); test: as above
T4 sequence: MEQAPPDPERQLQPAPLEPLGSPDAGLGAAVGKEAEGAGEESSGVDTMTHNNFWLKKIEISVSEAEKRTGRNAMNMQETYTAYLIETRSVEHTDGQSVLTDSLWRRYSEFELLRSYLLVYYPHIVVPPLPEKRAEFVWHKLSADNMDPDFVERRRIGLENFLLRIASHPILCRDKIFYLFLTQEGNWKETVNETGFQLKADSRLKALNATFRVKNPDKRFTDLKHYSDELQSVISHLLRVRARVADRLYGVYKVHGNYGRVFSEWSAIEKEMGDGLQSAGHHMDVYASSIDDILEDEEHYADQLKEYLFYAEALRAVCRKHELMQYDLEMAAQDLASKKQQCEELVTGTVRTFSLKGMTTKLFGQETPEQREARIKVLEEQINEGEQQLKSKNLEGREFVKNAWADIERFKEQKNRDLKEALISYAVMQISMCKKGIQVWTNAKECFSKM

GST-tagged SNX6 = target: T5, GST-tagged SNX6 (UniProt Q9UNH7); test: as above
T5 sequence: T1 sequence

[1] = target: T6, sorting nexin-6 (human (endogenous in HeLa)) (UniProt Q9UNH7); test: co-IP; endogenous proteins precipitated from HeLa lysate with antibodies against SNX6, SNX1 or SNX2 and G-agarose, blots for SNX1 or SNX2; lysis buffer 20 mM HEPES pH 7.2, 100 mM K-acetate, 2.5 mM Mg-acetate, 0.1% Triton X-100; 4°C
T6 sequence: T1 sequence

GST-SNX1 = GST-SNX1 (UniProt Q13596); test: pull-down; GST fusions purified from E. coli incubated with lysate of HeLa cells lentivirally transduced with Flag-Rab6IP1; complexes isolated by GST pull-down; only the target purified
GST-SNX4 = target: T7, GST-SNX4 (UniProt O95219); test: as above
T7 sequence: T4 sequence

Flag-tagged SNX6, Q9UNH7 = target: T8, Flag-tagged SNX6, Q9UNH7; test: co-IP; immunoprecipitation of Flag-SNX6 from HeLa cells coexpressing GFP-SNX1 or GFP-SNX5; lysis buffer 20 mM HEPES pH 7.2, 100 mM K-acetate, 2.5 mM Mg-acetate, 0.1% Triton X-100; 4°C; settings: remark: other sources report otherwise
T8 chain: T1 sequence

Molecule: dynein intermediate chain (DYNC1I2) (from UniProt Q13409 1-638)
- binding (GST-SNX3): no binding

Molecule: p50^dynamitin (from UniProt Q13561 1-401)
- binding (GST-SNX3): no binding
- binding (GST-SNX5): binds
- binding (GST-SNX6): binds

Molecule: p150^glued (from UniProt Q14203-1 1-1278)
- binding (GST-SNX3): no binding
- binding (GST-SNX5): binds
- binding (GST-SNX6): binds

B2: GFP-tagged SNX5, Q9Y5X3 1-404 (protein)
chain: T2 sequence
- binding (Flag-tagged SNX6, Q9UNH7): no binding

Other lines, results leading:

- binding (Flag-tagged SNX6): binds
Molecule: GFP-SNX1 (from UniProt Q13596 1-522)

- binding (GST-tagged SNX3): no binding
- binding (GST-tagged SNX4): no binding
- binding (GST-tagged SNX6): binds
- binding (GST-SNX3): no binding
- binding (GST-SNX6): binds
- binding [1]: binds
Molecule: sorting nexin-1 (from UniProt Q13596 1-522)

- binding (GST-SNX1): binds
- binding (GST-SNX4): no binding
B1: Flag-Rab6IP1 (protein, UniProt Q6IQ26 1-1287)
chain: MSGGGGGGGSAPSRFADYFVICGLDTETGLEPDELSALCQYIQASKARDGASPFISSTTEGENFEQTPLRRTFKSKVLARYPENVEWNPFDQDAVGMLCMPKGLAFKTQADPREPQFHAFIITREDGSRTFGFALTFYEEVTSKQICSAMQTLYHMHNAEYDVLHAPPADDRDQSSMEDGEDTPVTKLQRFNSYDISRDTLYVSKCICLITPMSFMKACRSVLEQLHQAVTSPQPPPLPLESYIYNVLYEVPLPPPGRSLKFSGVYGPIICQRPSTNELPLFDFPVKEVFELLGVENVFQLFTCALLEFQILLYSQHYQRLMTVAETITALMFPFQWQHVYVPILPASLLHFLDAPVPYLMGLHSNGLDDRSKLELPQEANLCFVDIDNHFIELPEDLPQFPNKLEFVQEVSEILMAFGIPPEGNLHCSESASKLKRLRASELVSDKRNGNIAGSPLHSYELLKENETIARLQALVKRTGVSLEKLEVREDPSSNKDLKVQCDEEELRIYQLNIQIREVFANRFTQMFADYEVFVIQPSQDKESWFTNREQMQNFDKASFLSDQPEPYLPFLSRFLETQMFASFIDNKIMCHDDDDKDPVLRVFDSRVDKIRLLNVRTPTLRTSMYQKCTTVDEAEKAIELRLAKIDHTAIHPHLLDMKIGQGKYEPGFFPKLQSDVLSTGPASNKWTKRNAPAQWRRKDRQKQHTEHLRLDNDQREKYIQEARTMGSTIRQPKLSNLSPSVIAQTNWKFVEGLLKECRNKTKRMLVEKMGREAVELGHGEVNITGVEENTLIASLCDLLERIWSHGLQVKQGKSALWSHLLHYQDNRQRKLTSGSLSTSGILLDSERRKSDASSLMPPLRISLIQDMRHIQNIGEIKTDVGKARAWVRLSMEKKLLSRHLKQLLSDHELTKKLYKRYAFLRCDDEKEQFLYHLLSFNAVDYFCFTNVFTTILIPYHILIVPSKKLGGSMFTANPWICISGELGETQIMQIPRNVLEMTFECQNLGKLTTVQIGHDNSGLYAKWLVEYVMVRNEITGHTYKFPCGRWLGKGMDDGSLERILVGELLTSQPEVDERPCRTPPLQQSPSVIRRLVTISPNNKPKLNTGQIQESIGEAVNGIVKHFHKPEKERGSLTLLLCGECGLVSALEQAFQHGFKSPRLFKNVFIWDFLEKAQTYYETLEKNEVVPEENWHTRARNFCRFVTAINNTPRNIGKDGKFQMLVCLGARDHLLHHWIALLADCPITAHMYEDVALIKDHTLVNSLIRVLQTLQEFNITLETSLVKGIDI
